From the RNAGym collection of RNA variant scans (doi:10.7554/elife.90254) come the findings set out here.

Read counts are not given, so values of variants with three or more changes are uncertain.

B1: OR4K15 (parent)
chain: GUUAACGGUCAUAGGCCAUGGAAACUAGGAGCACCAUUUCGCUGCCAGUGAAGAAAUGAACAAAGAAAAUCUGGGCCAGGCAGGCAUCAAAAGAAAUAGUCUUGCGCUCAACCAGAAAGUCUGUAAUCAUUUUAAGGGUA

The data set covers variants of B1. The data set is described as follows: self-cleavage, relative activity (ratio to wild type); higher = more cleavage; in vitro, sequencing; the parent is a self-cleaving ribozyme.
On to GUUAACGGUCAUAGGCCAUGGGAACUAGGAGCACCAUUUCGCUGCCAGUGAAGAAAUGAACAAAGAAAAUCUGGGCCAGGCUGGCGUCAAAAGAAAUAGUCUUGCGCUCAACCGGAAAGUCUGUAAUCAUUUUAAGGGUA [A22G A82U A86G A114G], for which the self-cleavage stood at 0.07. Consider GUUAACGGUCAUAGGCCAUGGGAACUAGGAGCACCAUUUCGCUGACGGUGAAGAAAUGAACAAAGAAAAUCUGGGCCAGGCAGGCAUCAAAAGAAAUAGUCUUGCGCUCAACCAGAAAGUCUGUAAUCAUUUUAAGGGUA [A22G C45A A47G], for which the self-cleavage was determined as 1.49.

For GUUAACGGUCAUAGGCCAUGGGAACUAGGAGCACCAUUUCGCUGCCAGUGAAGAAAUGAACAAAGAAAAUCUGGGCCAGGCAGGCAUCAGAAGAAAUAGUCUUGCGCUCAACCAGAAAGUCUGUAAUCAUUUUAAGGUUA [A22G A90G G138U], the self-cleavage was determined as 1.54. Turning to GUUAACGGUCAUAGGCCAUGGGAACUAAGAGCACCAUUUCGCUGCCAGUGAAGAAAUGAACAAAGAAAAUCUGGGCCAGGCAGGCGUCAAAAGAAAUAGUCUUGCGCUCAACCAGAAGGUCGGUAAUCAUUUUAAGGGUA [A22G G28A A86G A118G U122G], the self-cleavage amounted to 1.63. Turning to GUUAACGGUCAUAGGCCAUGGGAACUAGGAGCACCAUUUCGCUGCCAGUGAAGAAAUGAACAAAGAAAAUCUGGGCCAGGCAGGCAUCAAAUGAAAUAGUCUUGCGCUCAACCCGAAAGUCUGUAAUCACUUUAAGGGUA [A22G A92U A114C U130C], the self-cleavage was 0. Take GUUAACGGUCAUAGGCCAUGGGAACUAGGAGCACCAUUUCGCUGCCAGUGAAGAAAUGAACAAAGAAAAUCUGGGCCAGGCAGGCAUCAAAAGAAAUAGUCUUGCGCUCAACCAGAGAGUCUGUAAUCAUUCUAAGGGUA [A22G A117G U132C]: the self-cleavage was 1.98. The value for GUUAACGGUCAUAGGCCAUGGGAACUAGGAGCACCAUUUCGCUGCCAGUGAAGAAAUGAACAAAGAAAAUCUGGGCCAGGCAGGCAUCGAAAGAAAUAGCCUUGCGCUCAACCAGAAAGUCUGUAAUCAUUUUAAGGGUA [A22G A89G U100C] was 1.9. For the variant GUUAACGGUCAUAGGCCAUGGGAACUAGGAGCACCAUUUCGCUGCCAGUGAAGAAAUGAACAAAGAAAAUCUGGGCCAGGCAGGCAUCAAAAGAGAUAGUCUUGCGCUCAACCAGAAAGUCUGUAAUCAUUAUAAGGGUA [A22G A95G U132A], the self-cleavage was found to be 1.69. Next, GUUAACGGUCAUAGGCCAUGGGAACUAGGAGCACCAUUUCGCUGCCAGUGAAGAAAUGAACAAAGAAAAUCUGGGCCAGGCUGGCAUCAAAAGAAAUAGUCUUGCGCUCAGCCAGAAAGUCUGUAAUCAUUUUAAGGGUA [A22G A82U A111G]: 0.03; GUUAACGGUCAUAGGCCAUGGGAACUAGGAGCACCAUUUCGCUGCCAGUGAAGAAAUGAACAAAGAAAAUCUGGGCCAGGCAGGCAUCAAAAGAAGUAGUCUUGCGCUCAACCUGAAAGUCUGUAAUCAUUUUAAGGGUA [A22G A96G A114U]: 0.08; GUUAACGGUCAUAGGCCAUGGGAACUAGGAGCACCAUUUCGCUGCCAGUGAAGAAAUGAACAAAGAAAAUCUGGGCCAGGCAGGCAUCAAAAGGAAUAGUCUUGCUCUCAACCAGAAAGUCUGUAAUCAUUUUAAGGGUA [A22G A94G G106U]: 0.02. Regarding GUUAACGGUCAUAGGCCAUGGGAACUAGGAGCACCAUUUCGCUGCCAGUGAAGAAAUGAACAAAGAAAAUCUGGGCCAGGCAGGCAUCAAGAGAAAUAGCCCUGCGCUCAACCAGAAAGUCUGUAAUCAUUUUAAGGGUA [A22G A91G U100C U102C], the self-cleavage was determined as 0.49. Regarding GUUAACGGUCAUAGGCCAUGGGAACUAGGAGCACCAUUUCGCUGCCAGUGAAGAAAUGAACAAAGAAAAUCUGGGCCAGGCAGGCAUCUAAAGAAAUAGUCUUGCGCUCAACCAGAACGUCUGUAAUCAUUUUAAGGGUA [A22G A89U A118C], the self-cleavage is 0.46. Next, GUUAACGGUCAUAGGCCAUGGGAACUAGGAGCACCAUUUCGCUGCCAGUGAAGAAAUGAACAAAGAAAAUCUGGGCCAGGCAGGCAUCAAAGGAAAUAGUCUUACGCUCAACCAGAAAGUCUGUAAUCAUUUUAAGGGUA [A22G A92G G104A]: 0.05.

As for GUUAACGGUCAUAGGCCAUGGGAACUAGGAGCACCAUUUCGCUGCCAGUGAAGAAAUGAACAAAGAAAAUCUGGGCCAGGCAGGCAUCAGAAGAAAUAGUCUUGCGCUCAACCAGAAAGUCUGUAAUCAUCUUAAGGGUA [A22G A90G U131C], the self-cleavage is 0.65.

For the variant GUUAACGGUCAUAGGCCAUGGGAACUAGGAACACCAUUUCGCUGCCAGUGAAGAAACGAACAAAGAAAAUCUGGGCCAGGCAGGCGUCAAAAGAAAUAGUCCUGCGCUCAACCAGAAAGUCUGUAACCAUUUUAAGGGUA [A22G G31A U57C A86G U102C U127C], the self-cleavage amounted to 1.29.

GUUAACGGUCAUAGGCCAUGGGAACUAGGAGCACCAUUUCACUGCCAGUGAAGAAAUGAACAAGGAAAACCUGGGCCGGGCAGGCAUCAAAAGAAAUAGUCUUGCGCUCAACCAGAAAGUCUGUAAUCAUUUUAAAGGUA [A22G G41A A64G U70C A78G G136A]: the self-cleavage was 0.37.

For the variant GUUAACGGUCAUAGGCCAUGGGAACUAGGAGCACCAUUUCGCUGCCAGUGAAGAAAUGAACAAAGAAAAUCUGGGCCAGGCGGGCAUCAAAAGAAAUAGUCUUGCGCUCAGCCAGAAAGUCUGUAAUCAUUUUAAGGGUA [A22G A82G A111G], the self-cleavage was 0.02.

In the case of GUUAACGGUCAUAGGCCAUGGGAACUAGGAGCACCAUUUCGCUGCCAGUGAAGAAAUGAACAAAGAAAAUCUGGGCCAGGCAGGCAUCAGAAGAAACAGUCUUGCGCUCACCCAGAAAGUCCGUAAUCGUUUUAAGGGUA [A22G A90G U97C A111C U122C A129G], the self-cleavage is 0. Consider GUUAACGGUCAUAGGCCAUGGGAACUAGGAGCACCAUUUCGCUGCCAGUGAAGAAAUGAACAAAGAAAAUCUGGGCCAGGCGGGCAUCAAAAGAAAUAGCCUUGCGCUCAACCAGAAAGUCUGUAAUCAUUUUAAGGGUA [A22G A82G U100C], for which the self-cleavage was determined as 1.22. Consider GUUAACGGUCAUAGGCCAUGGGAACUAGGAGCACCAUUUCGCUGCCAGUGAAGAAAUGAACAAAGAAAAUCUGGGACAGGCAGGCAUCAAAAGAAAUAGUCUCGCGCUCAACCAGAAAGUCUGUAAUCACUUUAAGGGUA [A22G C76A U103C U130C], for which the self-cleavage stood at 0.06.
